According to the supplement of paper PMC8728848:
This is one part of the list.

Key:
Test in all cases: glycan array binding signal (z-score within array); higher = stronger binding
Conditions in all cases: glycan notation: IUPAC condensed, linker removed; mutation: D325A
[1] = biological target: Fuc(a1-2)Gal
In short: (§1)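 The binding signal is a Z-score computed within each array and averaged over linkers. Arrays of the same protein sequence at different concentrations or buffers were also averaged together. Data originate from 3228 arrays in the Consortium for Functional Glycomics database, kept only where the protein sequence was available.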

[2] = biological target: Fuc(a1-2)Gal(b1-3)GalNAc
In short: as §1

[3] = biological target: Fuc(a1-2)Gal(b1-3)GalNAc(b1-3)Gal
In short: as §1

[4] = biological target: Fuc(a1-2)Gal(b1-3)GalNAc(b1-3)Gal(a1-4)Gal(b1-4)Glc
In short: as §1

[5] = biological target: Fuc(a1-2)Gal(b1-3)GalNAc(b1-4)[Neu5Ac(a2-3)]Gal(b1-4)Glc
In short: as §1

[6] = biological target: Fuc(a1-2)Gal(b1-3)GlcNAc
In short: as §1

[7] = biological target: Fuc(a1-2)Gal(b1-3)GlcNAc(b1-3)Gal(b1-4)Glc
In short: as §1

[8] = biological target: Fuc(a1-2)Gal(b1-3)[Fuc(a1-4)]GlcNAc
In short: as §1

[9] = biological target: Fuc(a1-2)Gal(b1-4)Glc
In short: as §1

[10] = biological target: Fuc(a1-2)Gal(b1-4)Glc6S
In short: as §1

[11] = biological target: Fuc(a1-2)Gal(b1-4)GlcNAc
In short: as §1

[12] = biological target: Fuc(a1-2)Gal(b1-4)GlcNAc(b1-3)Gal(b1-4)GlcNAc
In short: as §1

[13] = biological target: Fuc(a1-2)Gal(b1-4)GlcNAc(b1-3)Gal(b1-4)GlcNAc(b1-3)Gal(b1-4)GlcNAc
In short: as §1

[14] = biological target: Fuc(a1-2)Gal(b1-4)GlcNAc6S
In short: as §1

[15] = biological target: Fuc(a1-2)Gal(b1-4)[Fuc(a1-3)]GlcNAc
In short: as §1

[16] = biological target: Fuc(a1-2)Gal(b1-4)[Fuc(a1-3)]GlcNAc(b1-3)Gal(b1-4)[Fuc(a1-3)]GlcNAc
In short: as §1

[17] = biological target: Fuc(a1-2)Gal(b1-4)[Fuc(a1-3)]GlcNAc(b1-3)Gal(b1-4)[Fuc(a1-3)]GlcNAc(b1-3)Gal(b1-4)[Fuc(a1-3)]GlcNAc
In short: as §1

[18] = biological target: Fuc(a1-2)Gal6S(b1-4)Glc
In short: as §1

[19] = biological target: Fuc(a1-2)Gal6S(b1-4)Glc6S
In short: as §1

[20] = biological target: Fuc(a1-2)Gal6S(b1-4)GlcNAc
In short: as §1

[21] = biological target: Fuc(a1-2)[Gal(a1-3)]Gal
In short: as §1

[22] = biological target: Fuc(a1-2)[Gal(a1-3)]Gal(b1-3)GlcNAc
In short: as §1

[23] = biological target: Fuc(a1-2)[Gal(a1-3)]Gal(b1-4)Glc
In short: as §1

[24] = biological target: Fuc(a1-2)[Gal(a1-3)]Gal(b1-4)GlcNAc
In short: as §1

[25] = biological target: Fuc(a1-2)[Gal(a1-3)]Gal(b1-4)[Fuc(a1-3)]GlcNAc
In short: as §1

[26] = biological target: Fuc(a1-2)[Gal(a1-4)]Gal(b1-4)GlcNAc
In short: as §1

[27] = biological target: Fuc(a1-2)[GalNAc(a1-3)]Gal
In short: as §1

[28] = biological target: Fuc(a1-2)[GalNAc(a1-3)]Gal(b1-3)GlcNAc
In short: as §1

[29] = biological target: Fuc(a1-2)[GalNAc(a1-3)]Gal(b1-4)Glc
In short: as §1

[30] = biological target: Fuc(a1-2)[GalNAc(a1-3)]Gal(b1-4)GlcNAc
In short: as §1

[31] = biological target: Fuc(a1-2)[GalNAc(a1-3)]Gal(b1-4)[Fuc(a1-3)]GlcNAc
In short: as §1

[32] = biological target: Fuc(a1-2)[GalNAc(a1-4)]Gal(b1-4)GlcNAc
In short: as §1

[33] = biological target: Fuc(a1-2)[GalNAc(b1-3)]Gal
In short: as §1

[34] = biological target: Fuc(a1-3)GlcNAc
In short: as §1

[35] = biological target: Fuc(a1-3)[Gal(b1-4)]Glc6S
In short: as §1

[36] = biological target: Fuc(a1-3)[Gal(b1-4)]GlcNAc
In short: as §1

[37] = biological target: Fuc(a1-3)[Gal(b1-4)]GlcNAc(b1-2)Man(a1-3)[Fuc(a1-3)[Gal(b1-4)]GlcNAc(b1-2)Man(a1-6)]Man(b1-4)GlcNAc(b1-4)GlcNAc
In short: as §1

[38] = biological target: Fuc(a1-3)[Gal(b1-4)]GlcNAc(b1-2)Man(a1-6)[Gal(b1-4)GlcNAc(b1-2)Man(a1-3)]Man(b1-4)GlcNAc(b1-4)GlcNAc
In short: as §1

[39] = biological target: Fuc(a1-3)[Gal(b1-4)]GlcNAc(b1-3)Gal(b1-3)[Fuc(a1-4)]GlcNAc
In short: as §1

[40] = biological target: Fuc(a1-3)[Gal(b1-4)]GlcNAc(b1-4)Gal(b1-4)[Fuc(a1-3)]GlcNAc
In short: as §1

[41] = biological target: Fuc(a1-3)[Gal(b1-4)]GlcNAc(b1-4)Gal(b1-4)[Fuc(a1-3)]GlcNAc(b1-4)Gal(b1-4)[Fuc(a1-3)]GlcNAc
In short: as §1

[42] = biological target: Fuc(a1-3)[Gal(b1-4)]GlcNAc6S
In short: as §1

[43] = biological target: Fuc(a1-3)[Gal3S(b1-4)]Glc6S
In short: as §1

[44] = biological target: Fuc(a1-3)[Gal3S(b1-4)]GlcNAc
In short: as §1

[45] = biological target: Fuc(a1-3)[Gal3S(b1-4)]GlcNAc6S
In short: as §1

B1: Surfactant Protein D (Human); Neck + Carbohydrate Recognition Domain (NCRD) (Homo sapiens) (protein)
chain: MLLFLLSALVLLTQPLGYLEAEMKTYSHRTMPSACTLVMCSSVESGLPGRDRDGREGPRGEKGDPGLPGAAGQAGMPGQAGPVGPKGDNGSVGEPGPKGDTGPSGPPGPPGVPGPAGREGALGKQGNIGPQGKPGPKGEAGPKGEVGAPGMQGSAGARGLAGPKGERGVPGERGVPGNTGAAGSAGAMGPQGSPGARGPPGLKGDKGIPGDKGAKGESGLPDVASLRQQVEALQGQVQHLQAAFSQYKKVELFPNGQSVGEKIFKTAQFVKPFTEAQLLCTQAGGQLASPRSAAENAALQQLVVAKNEAAFLSMTDSKTEGKFTYPTGESLVYSNWAPGEPNDAGGSEDCVEIFTNGKWNDRACGEKRLVVCEF
glycan array binding signal (z-score) [1]: -0.27
glycan array binding signal (z-score) [2]: -0.268
glycan array binding signal (z-score) [3]: -0.272
glycan array binding signal (z-score) [4]: -0.271
glycan array binding signal (z-score) [5]: -0.163
glycan array binding signal (z-score) [6]: -0.276
glycan array binding signal (z-score) [7]: -0.268
glycan array binding signal (z-score) [8]: -0.268
glycan array binding signal (z-score) [9]: -0.269
glycan array binding signal (z-score) [10]: -0.27
glycan array binding signal (z-score) [11]: -0.268
glycan array binding signal (z-score) [12]: -0.226
glycan array binding signal (z-score) [13]: -0.267
glycan array binding signal (z-score) [14]: -0.172
glycan array binding signal (z-score) [15]: -0.273
glycan array binding signal (z-score) [16]: -0.243
glycan array binding signal (z-score) [17]: 1.02
glycan array binding signal (z-score) [18]: -0.271
glycan array binding signal (z-score) [19]: -0.26
glycan array binding signal (z-score) [20]: -0.266
glycan array binding signal (z-score) [21]: -0.251
glycan array binding signal (z-score) [22]: -0.251
glycan array binding signal (z-score) [23]: -0.272
glycan array binding signal (z-score) [24]: -0.27
glycan array binding signal (z-score) [25]: -0.253
glycan array binding signal (z-score) [26]: -0.273
glycan array binding signal (z-score) [27]: -0.217
glycan array binding signal (z-score) [28]: -0.272
glycan array binding signal (z-score) [29]: -0.261
glycan array binding signal (z-score) [30]: -0.247
glycan array binding signal (z-score) [31]: -0.247
glycan array binding signal (z-score) [32]: -0.264
glycan array binding signal (z-score) [33]: -0.268
glycan array binding signal (z-score) [34]: -0.252
glycan array binding signal (z-score) [35]: -0.275
glycan array binding signal (z-score) [36]: -0.237
glycan array binding signal (z-score) [37]: 0.015
glycan array binding signal (z-score) [38]: -0.272
glycan array binding signal (z-score) [39]: -0.274
glycan array binding signal (z-score) [40]: -0.225
glycan array binding signal (z-score) [41]: -0.14
glycan array binding signal (z-score) [42]: -0.272
glycan array binding signal (z-score) [43]: -0.246
glycan array binding signal (z-score) [44]: -0.269
glycan array binding signal (z-score) [45]: -0.263
